From publication PMC9462479
Numbering of substitutions follows the chain as printed. Numbers in names are those of the source. Results are given in words; binding and its absence hold for the method and conditions named. In cells and extracts the contact can be indirect. Some binding calls cover weakened binding; strength is not graded here. Tags and fused reporters may be left off the sequences shown.

T1: myc-tagged mouse ARMC5 (pcDNA3.1-myc-mArmc5) (mouse) (UniProt Q5EBP3)
T1 sequence: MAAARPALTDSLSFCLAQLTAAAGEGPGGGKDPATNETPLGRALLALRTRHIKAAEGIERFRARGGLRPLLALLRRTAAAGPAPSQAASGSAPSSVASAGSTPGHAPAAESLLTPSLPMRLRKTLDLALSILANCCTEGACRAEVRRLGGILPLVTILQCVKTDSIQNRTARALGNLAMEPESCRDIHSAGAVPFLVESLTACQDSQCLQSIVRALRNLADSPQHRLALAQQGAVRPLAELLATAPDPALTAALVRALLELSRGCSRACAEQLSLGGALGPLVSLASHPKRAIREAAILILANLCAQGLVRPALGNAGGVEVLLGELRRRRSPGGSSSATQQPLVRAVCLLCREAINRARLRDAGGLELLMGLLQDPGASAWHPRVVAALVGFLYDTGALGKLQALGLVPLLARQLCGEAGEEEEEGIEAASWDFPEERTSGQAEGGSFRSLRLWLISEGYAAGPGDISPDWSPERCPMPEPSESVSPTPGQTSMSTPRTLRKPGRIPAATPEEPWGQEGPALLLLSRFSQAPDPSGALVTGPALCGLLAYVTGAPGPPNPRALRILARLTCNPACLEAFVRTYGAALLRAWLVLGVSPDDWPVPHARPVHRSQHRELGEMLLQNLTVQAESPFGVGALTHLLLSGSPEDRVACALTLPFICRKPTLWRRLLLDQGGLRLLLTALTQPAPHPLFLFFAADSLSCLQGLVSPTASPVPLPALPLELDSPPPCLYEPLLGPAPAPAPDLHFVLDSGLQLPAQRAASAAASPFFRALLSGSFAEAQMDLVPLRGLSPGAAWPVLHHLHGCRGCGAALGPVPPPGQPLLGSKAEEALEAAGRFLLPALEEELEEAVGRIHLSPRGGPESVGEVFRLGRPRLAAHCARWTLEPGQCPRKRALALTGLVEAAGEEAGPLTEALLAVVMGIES

T2: FLAG-SREBF1(N), N-terminus of mouse SREBF1, from pcDNA3.1-FLAG-Srebf1(N) in HEK293T (mouse) (UniProt Q9WTN3)
T2 sequence: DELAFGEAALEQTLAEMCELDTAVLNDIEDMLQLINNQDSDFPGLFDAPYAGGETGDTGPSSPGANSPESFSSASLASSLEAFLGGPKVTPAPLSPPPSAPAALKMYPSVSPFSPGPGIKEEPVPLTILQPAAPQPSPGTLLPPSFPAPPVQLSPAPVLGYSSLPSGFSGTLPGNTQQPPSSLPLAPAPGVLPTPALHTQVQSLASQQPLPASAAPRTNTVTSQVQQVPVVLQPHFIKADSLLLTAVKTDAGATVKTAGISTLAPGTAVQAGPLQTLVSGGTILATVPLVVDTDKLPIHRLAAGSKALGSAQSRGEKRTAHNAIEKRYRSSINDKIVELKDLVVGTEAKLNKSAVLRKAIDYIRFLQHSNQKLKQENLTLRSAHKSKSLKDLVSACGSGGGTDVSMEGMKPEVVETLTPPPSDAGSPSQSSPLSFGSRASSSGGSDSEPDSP

B1: FLAG-tagged full-length mouse SREBF1 (pcDNA3.1-FLAG-Srebf1) (protein, UniProt Q9WTN3 1-1134)
chain: MDELAFGEAALEQTLAEMCELDTAVLNDIEDMLQLINNQDSDFPGLFDAPYAGGETGDTGPSSPGANSPESFSSASLASSLEAFLGGPKVTPAPLSPPPSAPAALKMYPSVSPFSPGPGIKEEPVPLTILQPAAPQPSPGTLLPPSFPAPPVQLSPAPVLGYSSLPSGFSGTLPGNTQQPPSSLPLAPAPGVLPTPALHTQVQSLASQQPLPASAAPRTNTVTSQVQQVPVVLQPHFIKADSLLLTAVKTDAGATVKTAGISTLAPGTAVQAGPLQTLVSGGTILATVPLVVDTDKLPIHRLAAGSKALGSAQSRGEKRTAHNAIEKRYRSSINDKIVELKDLVVGTEAKLNKSAVLRKAIDYIRFLQHSNQKLKQENLTLRSAHKSKSLKDLVSACGSGGGTDVSMEGMKPEVVETLTPPPSDAGSPSQSSPLSFGSRASSSGGSDSEPDSPAFEDSQVKAQRLPSHSRGMLDRSRLALCVLAFLCLTCNPLASLFGWGILTPSDATGTHRSSGRSMLEAESRDGSNWTQWLLPPLVWLANGLLVLACLALLFVYGEPVTRPHSGPAVHFWRHRKQADLDLARGDFPQAAQQLWLALQALGRPLPTSNLDLACSLLWNLIRHLLQRLWVGRWLAGQAGGLLRDRGLRKDARASARDAAVVYHKLHQLHAMGKYTGGHLAASNLALSALNLAECAGDAISMATLAEIYVAAALRVKTSLPRALHFLTRFFLSSARQACLAQSGSVPLAMQWLCHPVGHRFFVDGDWAVHGAPPESLYSVAGNPVDPLAQVTRLFREHLLERALNCIAQPSPGAADGDREFSDALGYLQLLNSCSDAAGAPACSFSVSSSMAATTGPDPVAKWWASLTAVVIHWLRRDEEAAERLYPLVEHIPQVLQDTERPLPRAALYSFKAARALLDHRKVESSPASLAICEKASGYLRDSLASTPTGSSIDKAMQLLLCDLLLVARTSLWQRQQSPASVQVAHGTSNGPQASALELRGFQHDLSSLRRLAQSFRPAMRRVFLHEATARLMAGASPARTHQLLDRSLRRRAGSSGKGGTTAELEPRPTWREHTEALLLASCYLPPAFLSAPGQRMSMLAEAARTVEKLGDHRLLLDCQQMLLRLGGGTTVTSS
B2: myc-tagged human ARMC5 (pcDNA3.1-myc-hARMC5), wild type (protein, UniProt Q96C12 1-935)
chain: MAAAKPTLTDSLSFCLAQLAAAAGEALGGEKDPATNETPLSRALLALRTRHIKAAGGIERFRARGGLRPLLALLRRAAAAGSAPSQAGPGSAPSSAASGASSPAPASGPAPSAVSSSSPTPPVRLRKTLDLALSILADCCTEGACRTEVRRLGGILPLVTILQCMKTDSIQNRTARALGNLAMEPESCGDIHCAGAVPLLVESLTACQDSQCLQSVVRALRNLADSPQHRLALAQQGAVRPLAELLATAPDAALTLALVRALLELSRGCSRACAEQLSLGGGLGPLVSLASHPKRAVREGTILILANLCAQGLIRPALGNAGGVEVLVDELRQRRDPNGASPTSQQPLVRAVCLLCREAINRARLRDAGGLDLLMGLLRDPRASAWHPRIVAALVGFLYDTGALGRLQALGLVPLLAGQLCGEAGEEEEEGREAASWDFPEERTPERAQGGSFRSLRSWLISEGYATGPDDISPDWSPEQCPPEPMEPASPAPTPTSLRAPRTQRTPGRSPAAAIEEPWGREGPALLLLSRFSQAPDPSGALVTGPALYGLLTYVTGAPGPPSPRALRILSRLTCNPACLEAFVRSYGAALLRAWLVLGVAPDDWPAPRARPTLHSRHRELGERLLQNLTVQAESPFGVGALTHLLLSGSPEDRVACALTLPFICRKPSLWRRLLLEQGGLRLLLAALTRPAPHPLFLFFAADSLSCLQDLVSPTVSPAVPQAVPMDLDSPSPCLYEPLLGPAPVPAPDLHFLLDSGLQLPAQRAASATASPFFRALLSGSFAEAQMDLVPLRGLSPGAAWPVLHHLHGCRGCGAALGPVPPPGQPLLGSEAEEALEAAGRFLLPGLEEELEEAVGRIHLGPQGGPESVGEVFRLGRPRLAAHCARWTLGSEQCPRKRGLALVGLVEAAGEEAGPLTEALLAVVMGIELGARVPA
B3: myc-tagged human ARMC5(L754P) (protein, UniProt Q96C12 1-935)
chain: B2 chain with L754P
B4: myc-tagged human ARMC5(R898W) (protein, UniProt Q96C12 1-935)
chain: B2 chain with R898W
B5: myc-tagged mouse ARMC5ΔBTB, C-terminal deletion mutant (pcDNA3.1-myc-mArmc5ΔBTB) (domain or fragment, UniProt Q5EBP3 1-730)
chain: MAAARPALTDSLSFCLAQLTAAAGEGPGGGKDPATNETPLGRALLALRTRHIKAAEGIERFRARGGLRPLLALLRRTAAAGPAPSQAASGSAPSSVASAGSTPGHAPAAESLLTPSLPMRLRKTLDLALSILANCCTEGACRAEVRRLGGILPLVTILQCVKTDSIQNRTARALGNLAMEPESCRDIHSAGAVPFLVESLTACQDSQCLQSIVRALRNLADSPQHRLALAQQGAVRPLAELLATAPDPALTAALVRALLELSRGCSRACAEQLSLGGALGPLVSLASHPKRAIREAAILILANLCAQGLVRPALGNAGGVEVLLGELRRRRSPGGSSSATQQPLVRAVCLLCREAINRARLRDAGGLELLMGLLQDPGASAWHPRVVAALVGFLYDTGALGKLQALGLVPLLARQLCGEAGEEEEEGIEAASWDFPEERTSGQAEGGSFRSLRLWLISEGYAAGPGDISPDWSPERCPMPEPSESVSPTPGQTSMSTPRTLRKPGRIPAATPEEPWGQEGPALLLLSRFSQAPDPSGALVTGPALCGLLAYVTGAPGPPNPRALRILARLTCNPACLEAFVRTYGAALLRAWLVLGVSPDDWPVPHARPVHRSQHRELGEMLLQNLTVQAESPFGVGALTHLLLSGSPEDRVACALTLPFICRKPTLWRRLLLDQGGLRLLLTALTQPAPHPLFLFFAADSLSCLQGLVSPTASPVPLPALPLELDSPPP
B6: myc-tagged mouse ARMC5ΔARM, N-terminal deletion mutant (pcDNA3.1-myc-mArmc5ΔARM) (domain or fragment, UniProt Q5EBP3 442-926)
chain: GQAEGGSFRSLRLWLISEGYAAGPGDISPDWSPERCPMPEPSESVSPTPGQTSMSTPRTLRKPGRIPAATPEEPWGQEGPALLLLSRFSQAPDPSGALVTGPALCGLLAYVTGAPGPPNPRALRILARLTCNPACLEAFVRTYGAALLRAWLVLGVSPDDWPVPHARPVHRSQHRELGEMLLQNLTVQAESPFGVGALTHLLLSGSPEDRVACALTLPFICRKPTLWRRLLLDQGGLRLLLTALTQPAPHPLFLFFAADSLSCLQGLVSPTASPVPLPALPLELDSPPPCLYEPLLGPAPAPAPDLHFVLDSGLQLPAQRAASAAASPFFRALLSGSFAEAQMDLVPLRGLSPGAAWPVLHHLHGCRGCGAALGPVPPPGQPLLGSKAEEALEAAGRFLLPALEEELEEAVGRIHLSPRGGPESVGEVFRLGRPRLAAHCARWTLEPGQCPRKRALALTGLVEAAGEEAGPLTEALLAVVMGIES

target: T1, myc-tagged mouse ARMC5 (pcDNA3.1-myc-mArmc5) (mouse); assay: co-IP; Myc IP: HEK293T cells transfected, lysed in TNE buffer (150 mM NaCl, 1% NP40), anti-myc antibody and Protein G Sepharose, blotted with anti-FLAG

Binder | binding
B1 | binds

target: T2, FLAG-SREBF1(N), N-terminus of mouse SREBF1, from pcDNA3.1-FLAG-Srebf1(N) in HEK293T (mouse); assay: co-IP; FLAG IP: HEK293T cells transfected, lysed in TNE buffer (150 mM NaCl, 1% NP40), anti-FLAG M2 Affinity Gel, eluted with FLAG peptide, blotted with anti-myc

Binder | binding
B2 | binds
B3 | binds
B4 | binds
B5 | binds
B6 | no binding
